# Laboratory results: the supplement of paper PMC8728848
# The other results are listed elsewhere or left out.
# Legend:
# Assay in all cases: glycan array binding signal (z-score within array); higher = stronger binding
# Settings in all cases: glycan notation: IUPAC condensed, linker removed
# Fuc(a1-2)Gal = target: Fuc(a1-2)Gal
# Method in brief: (§1)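 Negative Z-scores can be read as non-binding. The Z-score is calculated within each array and then averaged across arrays of one protein sequence at different concentrations or buffers and across linkers. Arrays, 3228 in all, were curated from the Consortium for Functional Glycomics database and kept only where the protein sequence was available.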
# Fuc(a1-2)Gal(b1-3)GalNAc = target: Fuc(a1-2)Gal(b1-3)GalNAc
# Method in brief: as §1
# [1] = target: Fuc(a1-2)Gal(b1-3)GalNAc(a1-3)[Fuc(a1-2)]Gal(b1-4)Glc
# Method in brief: as §1
# [2] = target: Fuc(a1-2)Gal(b1-3)GalNAc(a1-3)[Fuc(a1-2)]Gal(b1-4)GlcNAc
# Method in brief: as §1
# [3] = target: Fuc(a1-2)Gal(b1-3)GalNAc(b1-3)Gal
# Method in brief: as §1
# [4] = target: Fuc(a1-2)Gal(b1-3)GalNAc(b1-3)Gal(a1-4)Gal(b1-4)Glc
# Method in brief: as §1
# [5] = target: Fuc(a1-2)Gal(b1-3)GalNAc(b1-4)[Neu5Ac(a2-3)]Gal(b1-4)Glc
# Method in brief: as §1
# Fuc(a1-2)Gal(b1-3)GlcNAc = target: Fuc(a1-2)Gal(b1-3)GlcNAc
# Method in brief: as §1
# [6] = target: Fuc(a1-2)Gal(b1-3)GlcNAc(b1-2)Man(a1-3)[Fuc(a1-2)Gal(b1-3)GlcNAc(b1-2)Man(a1-6)]Man(b1-4)GlcNAc(b1-4)GlcNAc
# Method in brief: as §1
# [7] = target: Fuc(a1-2)Gal(b1-3)GlcNAc(b1-2)Man(a1-3)[Fuc(a1-2)Gal(b1-3)GlcNAc(b1-2)Man(a1-6)]Man(b1-4)GlcNAc(b1-4)[Fuc(a1-6)]GlcNAc
# Method in brief: as §1
# [8] = target: Fuc(a1-2)Gal(b1-3)GlcNAc(b1-3)Gal(b1-4)Glc
# Method in brief: as §1
# [9] = target: Fuc(a1-2)Gal(b1-3)GlcNAc(b1-3)GalNAc
# Method in brief: as §1
# [10] = target: Fuc(a1-2)Gal(b1-3)GlcNAc(b1-3)[Fuc(a1-2)Gal(b1-3)GlcNAc(b1-6)]GalNAc
# Method in brief: as §1
# [11] = target: Fuc(a1-2)Gal(b1-3)GlcNAc(b1-3)[Gal(b1-4)GlcNAc(b1-6)]Gal(b1-4)Glc
# Method in brief: as §1
# [12] = target: Fuc(a1-2)Gal(b1-3)GlcNAc(b1-3)[Neu5Ac(a2-6)Gal(b1-4)GlcNAc(b1-6)]Gal(b1-4)Glc
# Method in brief: as §1
# [13] = target: Fuc(a1-2)Gal(b1-3)GlcNAc6S
# Method in brief: as §1
# [14] = target: Fuc(a1-2)Gal(b1-3)[Fuc(a1-4)]GlcNAc
# Method in brief: as §1
# [15] = target: Fuc(a1-2)Gal(b1-3)[Fuc(a1-4)]GlcNAc(b1-2)Man(a1-3)[Fuc(a1-2)Gal(b1-3)[Fuc(a1-4)]GlcNAc(b1-2)Man(a1-3)]Man(b1-4)GlcNAc(b1-4)GlcNAc
# Method in brief: as §1
# [16] = target: Fuc(a1-2)Gal(b1-3)[Fuc(a1-4)]GlcNAc(b1-2)Man(a1-3)[Fuc(a1-2)Gal(b1-3)[Fuc(a1-4)]GlcNAc(b1-2)Man(a1-6)]Man(b1-4)GlcNAc(b1-4)[Fuc(a1-6)]GlcNAc(b1-4)[Fuc(a1-6)]GlcNAc
# Method in brief: as §1
# [17] = target: Fuc(a1-2)Gal(b1-3)[Fuc(a1-4)]GlcNAc(b1-3)[Fuc(a1-3)[Gal(b1-4)]GlcNAc(b1-6)]Gal(b1-4)Glc
# Method in brief: as §1
# [18] = target: Fuc(a1-2)Gal(b1-3)[Fuc(a1-4)]GlcNAc(b1-3)[Gal(b1-4)GlcNAc(b1-6)]Gal(b1-4)Glc
# Method in brief: as §1
# Fuc(a1-2)Gal(b1-4)Glc = target: Fuc(a1-2)Gal(b1-4)Glc
# Method in brief: as §1
# Fuc(a1-2)Gal(b1-4)Glc6S = target: Fuc(a1-2)Gal(b1-4)Glc6S
# Method in brief: as §1
# Fuc(a1-2)Gal(b1-4)GlcNAc = target: Fuc(a1-2)Gal(b1-4)GlcNAc
# Method in brief: as §1
# [19] = target: Fuc(a1-2)Gal(b1-4)GlcNAc(b1-2)Man
# Method in brief: as §1
# [20] = target: Fuc(a1-2)Gal(b1-4)GlcNAc(b1-2)Man(a1-3)[Fuc(a1-2)Gal(b1-4)GlcNAc(b1-2)Man(a1-6)]Man(b1-4)GlcNAc(b1-4)GlcNAc
# Method in brief: as §1
# [21] = target: Fuc(a1-2)Gal(b1-4)GlcNAc(b1-2)Man(a1-3)[Fuc(a1-2)Gal(b1-4)GlcNAc(b1-2)Man(a1-6)]Man(b1-4)GlcNAc(b1-4)[Fuc(a1-6)]GlcNAc
# Method in brief: as §1
# [22] = target: Fuc(a1-2)Gal(b1-4)GlcNAc(b1-2)[Fuc(a1-2)Gal(b1-4)GlcNAc(b1-4)]Man(a1-3)[Fuc(a1-2)Gal(b1-4)GlcNAc(b1-2)Man(a1-6)]Man(b1-4)GlcNAc(b1-4)GlcNAc
# Method in brief: as §1
# [23] = target: Fuc(a1-2)Gal(b1-4)GlcNAc(b1-3)Gal(b1-4)GlcNAc
# Method in brief: as §1
# [24] = target: Fuc(a1-2)Gal(b1-4)GlcNAc(b1-3)Gal(b1-4)GlcNAc(b1-2)Man(a1-3)[Fuc(a1-2)Gal(b1-4)GlcNAc(b1-3)Gal(b1-4)GlcNAc(b1-2)Man(a1-6)]Man(b1-4)GlcNAc(b1-4)GlcNAc
# Method in brief: as §1
binder,measurement,setting,value
Cohesin-mDC-ASGPR (Macaca mulatta) (protein) LDITSHHHHHHDDLDAVRIKVDTVNAKPGDTVRIPVRFSGIPSKGIANCDFVYSYDPNVLEIIEIEPGDIIVDPNPDKSFDTAVYPDRKIIVFLFAEDSGTGAYAITKDGVFATIVAKVKEGAPNGLSVIKFVEVGGFANNDLVEQKTQFFDGGVNVGDTTEPATPTTPVTTPTTTDDLDAASSQNSKFQRDLVTLRTDFSNFTSNTVAEIQALTSQGSSVEEMIASLKAEVEVIKQEQQAVHSEMLLRVQRLMQDLNKLTCQVATLKNNASTERTCCPVNWVEHQDSCYWFSRSGMPWAEAEKHCQLENAHLVVINSREEQNFVQEHLSFAYTWMGLSDREGAWKWVDGTDYETGFQNWKPGQPDDWQGHGLGGGEDCAHFHPDGRWNDDVCQRPYYWVCEAGLTQASQESH,glycan array binding signal (z-score),Fuc(a1-2)Gal,-0.408
same,glycan array binding signal (z-score),Fuc(a1-2)Gal(b1-3)GalNAc,-0.394
same,glycan array binding signal (z-score),[1],-0.406
same,glycan array binding signal (z-score),[2],-0.389
same,glycan array binding signal (z-score),[3],0.568
same,glycan array binding signal (z-score),[4],-0.392
same,glycan array binding signal (z-score),[5],0.874
same,glycan array binding signal (z-score),Fuc(a1-2)Gal(b1-3)GlcNAc,-0.39
same,glycan array binding signal (z-score),[6],-0.292
same,glycan array binding signal (z-score),[7],-0.227
same,glycan array binding signal (z-score),[8],-0.408
same,glycan array binding signal (z-score),[9],-0.366
same,glycan array binding signal (z-score),[10],-0.397
same,glycan array binding signal (z-score),[11],-0.417
same,glycan array binding signal (z-score),[12],-0.404
same,glycan array binding signal (z-score),[13],0.873
same,glycan array binding signal (z-score),[14],-0.383
same,glycan array binding signal (z-score),[15],-0.306
same,glycan array binding signal (z-score),[16],-0.274
same,glycan array binding signal (z-score),[17],-0.416
same,glycan array binding signal (z-score),[18],-0.41
same,glycan array binding signal (z-score),Fuc(a1-2)Gal(b1-4)Glc,-0.387
same,glycan array binding signal (z-score),Fuc(a1-2)Gal(b1-4)Glc6S,-0.41
same,glycan array binding signal (z-score),Fuc(a1-2)Gal(b1-4)GlcNAc,-0.402
same,glycan array binding signal (z-score),[19],-0.388
same,glycan array binding signal (z-score),[20],-0.295
same,glycan array binding signal (z-score),[21],-0.121
same,glycan array binding signal (z-score),[22],-0.35
same,glycan array binding signal (z-score),[23],-0.415
same,glycan array binding signal (z-score),[24],-0.29
